# Laboratory results from PubChem BioAssay AID652106 (National Center for Advancing Translational Sciences (NCATS), 2013).
# The campaign covered roughly 370,000 compounds. About 500 (0.14%) were called active. Inconclusive results, whose numbers are uncertain, are shown with a selection of clear calls. The call rests on the fitted dose curve; in most records, active means well fitted activation curve with a large enough effect; inconclusive means small, poorly fitted or top-dose-only effect; inactive means no such curve, though single readings can be large or run the other way. Potencies of inconclusive entries are left out as doubtful fits.
# Test: qHTS of alpha-syn Inhibitors; further: nearly all actives have a fitted effect of over 65% in size; on growth rescue (activation): % of control where 0% means no effect
# Details: Yeast expressing alpha-synuclein, BacTiter-Glo, 24 h; Potency: growth rescue unless noted; growth rescue (activation): at 46.1 µM (top of the series) unless noted
# Method in brief: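 Galactose-induced alpha-syn yeast (OD600=0.02, raffinose-pregrown) + pinned cpd, 24 hr, 30 deg C; growth by BacTiter-Glo luminescence. Growth restoration scores as activation.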
# Potency means the concentration at half of the fitted maximal effect; tags describe the fitted curve by direction and shape.
SMILES,Potency,growth rescue (activation)
Cc1ccc(SCC(=O)O/N=C(\N)c2cccnc2)cc1,inactive,–
CCC(C)n1ncn(-c2ccc(N3CCN(c4ccc(OCC5COC(Cn6cncn6)(c6ccc(Cl)cc6Cl)O5)cc4)CC3)cc2)c1=O (stereo unspecified),"inconclusive [activator, single point]",–
CCOc1ccc(S(=O)(=O)Nc2ccc3oc(C)c(C(=O)OC(C)C)c3c2)cc1,"inconclusive [activator, single point]",–
O=C(NCCc1ccccn1)C1CCCN1S(=O)(=O)c1ccc(Cl)cc1 (stereo unspecified),"inconclusive [activator, single point]",–
Cc1nn(C(=O)N2CCCCC2)c(C)c1CN1C(=O)c2ccccc2C1=O,"inconclusive [activator, single point]",–
Nc1[nH]nc2ncc3cc4ccccc4nc3c12,"inconclusive [activator, partial curve]",–
O=C(CCNS(=O)(=O)c1ccccc1)OCC(=O)c1ccc[nH]1,"inconclusive [activator, single point]",–
COc1ccc(C(=O)O/N=C2\C(=O)N(C)c3ccccc32)cc1,active: 5.62 µM,–
Cc1ccc(CC2(C)C(=O)Nc3ccc(OC(F)(F)F)cc32)cc1 (stereo unspecified),"inconclusive [activator, partial curve]",–
CCO[C@H]1OC(C(=O)NCc2ccccc2)=C[C@@H](c2ccc(C(F)(F)F)cc2)[C@@H]1CCCO,"inconclusive [activator, single point]",–
COc1cccc(C(=O)Nc2nnc(-c3ccc(Cl)cc3)o2)c1,"inconclusive [activator, single point]",–
COc1ccc(N2CCN(Cc3cccn3-c3nnc(N4CCN(C5CCCCC5)CC4)s3)CC2)cc1,inactive,–
COc1ccccc1Nc1nnc(SCc2cc(=O)n3ccsc3n2)s1,"inconclusive [activator, single point]",–
O=C(OCc1nnc(-c2ccccc2)o1)c1ccc2ccccc2n1,"inconclusive [activator, single point]",–
CCc1nnc(NC(=O)c2cccc(S(=O)(=O)N3CC(c4ccccc4)CC3=O)c2)s1 (stereo unspecified),"inconclusive [activator, single point]",–
COc1ccc(C2=NCCc3cc(OC)c(OC)cc32)cc1OC,"inconclusive [activator, single point]",–
O=C(CSc1cccc[n+]1[O-])Nc1ccccc1Oc1ccccc1,–,inconclusive: -73.1% [activator]
O=S(=O)(c1ccc(Cl)cc1)c1snnc1-c1ccccc1,inactive,–
COC(=O)c1cn(NC(=O)/C=C/c2cc(OC)ccc2OC)c(=O)c2ccccc12,inactive,–
CC1CCc2nn(CC(=O)NCc3ccc4c(c3)OCO4)cc2C1 (stereo unspecified),"inconclusive [activator, single point]",–
Fc1ccc(CNc2ncnc3onc(-c4ccc(F)cc4)c23)cc1,inactive,–

SMILES,Potency,growth rescue (activation)
COc1ccc(C2=NS(=O)(=O)N(C)C(C(=O)N3CCC(C(N)=O)CC3)=C2)cc1,"inconclusive [activator, single point]",–
Cc1ccc(CO/N=C/c2c(O)cc(C)oc2=O)cc1,"inconclusive [activator, single point]",–
CCO[C@H]1OC(C(=O)NCc2ccccc2)=C[C@@H](c2ccc(Br)cc2)[C@@H]1CCCO,"inconclusive [activator, single point]",–
C[C@H](CO)N1C[C@H](C)[C@@H](CN(C)S(=O)(=O)c2ccc(-c3ccccc3)cc2)OCc2cn(nn2)CCCC1=O,"inconclusive [activator, single point]",–
COC(c1ccccc1)c1nnc(CCC(=O)NC2C3CC4CC(C3)CC2C4)o1 (stereo unspecified),"inconclusive [activator, single point]",–
O=C(NCc1ccccc1C(F)(F)F)C1CC(c2ccccc2C(F)(F)F)=NO1 (stereo unspecified),inactive,–
COc1ccccc1CNC(=O)c1cc(-c2cc(F)ccc2OC)n[nH]1,"inconclusive [activator, single point]",–
Cc1ccc(N=Nc2ccc(O)c3ncccc23)cc1C,"inconclusive [activator, single point]",–
CC(C)(C)OC(=O)[C@H](Cc1ccccc1)NC(=O)c1[nH]cnc1C(=O)Nc1ccc(Cl)cc1,"inconclusive [activator, single point]",–
C[C@H](CO)N1C[C@H](C)[C@H](CN(C)C(=O)c2ccc3ccn(C)c3c2)OCc2cnnn2CCCC1=O,"inconclusive [activator, single point]",–
Cc1cc(C)cc(OC(=O)c2cccnc2)c1,inactive,–
CC1(C)C(=O)N(c2ccccc2Cl)C(=O)c2ccccc21,"inconclusive [activator, partial curve]",–
Cc1ccc(C)c(N=Nc2ccc(O)c3ncccc23)c1,"inconclusive [activator, single point]",–
COc1ccccc1-c1cc2nc(NCc3cccc(Cl)c3)ccn2n1,"inconclusive [activator, partial curve, poor fit]",–
Cc1cc(C)cc(C(=O)NC2C(=O)N3C(C(=O)O)=C(CSc4nnc(C)s4)CSC23)c1 (stereo unspecified),"inconclusive [activator, single point]",–
CCOC(=O)[C@@H]1[C@H]2COc3ccccc3[C@@H]2N2C(=O)N(c3ccc(Cl)cc3)C(=O)[C@@]12C,inactive,–
Cc1c(NS(=O)(=O)c2cccs2)cccc1-c1nc2cccnc2s1,"inconclusive [activator, partial curve]",–
Cc1ccc(Cc2c(-c3ccccc3)nc3c4ccccc4ccn23)cc1,inactive,–
COc1cc(/C=C(\C#N)C(=O)NCC2CCCO2)ccc1OC(=O)c1ccco1 (stereo unspecified),"inconclusive [activator, single point]",–
CCOC(=O)c1cccnc1SCc1cc(=O)n2ccccc2n1,"inconclusive [activator, single point]",–
